Measurements as given in PMC12136788.
The other results are listed elsewhere or left out.

T1: UNK ZnF1-3 (human, UniProt Q9C0B0 31-174)
T1 sequence: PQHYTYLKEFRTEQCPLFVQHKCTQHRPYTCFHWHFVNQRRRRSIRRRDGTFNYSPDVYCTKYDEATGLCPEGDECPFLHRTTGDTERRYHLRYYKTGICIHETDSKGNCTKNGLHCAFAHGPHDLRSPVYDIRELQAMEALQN

B1: chr10:5807933:5807934:-_ENSG00000057608_ENST00000380191|hu_mus|FALSE|FALSE (ssRNA)
RNA: GGGAGUUCUACAGUCCGACGAUCGGGCUUACAGUAUUGAUUUCAUACAAUAUACAUUAUUUGCCAAAUUUUAAGUUUGUCCUAAUUAUUACAUAAUAUGUACUGCUGUUAGUCUUCUCCAUAAAUGUCAUUCUUCUUGCGCUUCAACAGAGGAUUGAGCAUCA
B2: chr3:133545784:133545785:-_ENSG00000154917_ENST00000285208|hu_mus|FALSE|FALSE (ssRNA)
RNA: GGGAGUUCUACAGUCCGACGAUCGAGGAUGUGAGUGUGUGUAUGUGUGCGCGCGAAGGGUGUAUACACAAGUCUAUCUCUAUGUAUAAUUAUGUACACACAUAUAAAAACUAAACACGUGACGUUUCGAUUAUGCUCGUACAUCAACAGAGGAUUGAGCAUCA
B3: 13810723_13813188_1792_CDS_ENSMUSG00000022682_ENSMUST00000023363|mouse|control|control (ssRNA)
RNA: GGGAGUUCUACAGUCCGACGAUCUACCUCCUUUUUAGUAGAUUUCUUAAACUCCUGAAGCUCUUCAGCACUCCCAUCUUCCCAAAUCUGAUAAAUAGGAUCAAUGAACUUCUUUGACCUCUUAAGCACACAAGGGUCAAAGGGCAACAGAGGAUUGAGCAUCA
B4: chr22:32879901:32879902:+_ENSG00000100225_ENST00000397426|hu_mus|hu_hu_hu_mus_False|48_78 (ssRNA)
RNA: GGGAGUUCUACAGUCCGACGAUCCUCUUCCAUACUCAUGGCAUCCUGAAUUGACUCAGCUUCAAAAUUUUGACUAGGCCCUUCCAUACUGUCGUCAGUCCAGGCAUCAAAUGGGGUGGCCUGUCCUUGGGAUGAAUCAGUCCCCAACAGAGGAUUGAGCAUCA
B5: chr5:128441001:128441002:+_ENSG00000066583_ENST00000173527|hu_hu|FALSE|FALSE (ssRNA)
RNA: GGGAGUUCUACAGUCCGACGAUCGCACACAUGAGUUUCUACUCCAAAUAAUACAACACUCCUGACUCCGGGAAUCUCUGCUAAUGCCGCUUCUACUUCUGGUAAUACCAUUGAAAACUUGGUCUUUGGAAGUACCAGUUUUACCAACAGAGGAUUGAGCAUCA
B6: chr1:120459247:120459248:-_ENSG00000134250_ENST00000256646|hu_hu|FALSE|FALSE (ssRNA)
RNA: GGGAGUUCUACAGUCCGACGAUCCCGAGCCACAUCCCGGGGAAGACGAUCCAUAUGGUCUGUGAUGUCUCGAUUGGCAAAAUGGUCUAACAGGAUCUUGGCUGCUUCAUAGCUCCCCUCCCGGGCAGCAAGAAACAGAGGUGUCAACAGAGGAUUGAGCAUCA
B7: chr1:247070963:247070964:-_ENSG00000153207_ENST00000391829|hu_hu|FALSE|FALSE (ssRNA)
RNA: GGGAGUUCUACAGUCCGACGAUCCUGAUUUGUCCUGCUUAUGUAACUAAGAGUUGAAACAGCUGUUCCUGUUGGACUUACUAACUGGAAACACAGAUGGCGCCCUUGUCUCAUUACACUUUCUCUAAUGUGUGGUACUUCAGCCAACAGAGGAUUGAGCAUCA
B8: 17864358_17864478_2033_3pUTR_ENSMUSG00000041297_ENSMUST00000042365|mouse|control|control (ssRNA)
RNA: GGGAGUUCUACAGUCCGACGAUCUACCUUUGUUACUUGAAGCGGUGGCUUUGUUUUUGCUUUGUCGCUUUUGACGGUCCCACCACUUGAAGGAGAAGGUGCAUGCUCAGUUUUAAGUUUUUUGACUUCCUUCACAUGGUUUGUCAACAGAGGAUUGAGCAUCA
B9: chr13:3599227:3599228:-_ENSMUSG00000033799_ENSMUST00000096069|mus_hu|FALSE|FALSE (ssRNA)
RNA: GGGAGUUCUACAGUCCGACGAUCCAAGUAUGCUUUUAUGAGCUGGUGGUGCCAUAGUUUUAGAUUCCCUGUAUCGAAAAGCUACAAUUACAUAAGGACAGAUCUGUCUGGGUCGUUCAAUAACGGUGUUGCCUGAAAGUUCGUCAACAGAGGAUUGAGCAUCA
B10: chr19:16212804:16212805:+_ENSG00000167460_ENST00000300933|hu_mus|hu_hu_hu_mus_False|1_108 (ssRNA)
RNA: GGGAGUUCUACAGUCCGACGAUCAACAAAUAUGCAAUGAAGGAAAGAUGUAACAUGGAACAGCAUUAAAGCUCAGUCAGAAGGCACAUGGGCAACAAUGAUCACCCCAGCAUUCUCGCUUGGAAUGCUUAAAGACAGAUGUUUCAACAGAGGAUUGAGCAUCA
B11: chr17:65740002:65740003:+_ENSG00000130935_ENST00000581375|hu_hu|hu_hu_hu_mus_False|98_98 (ssRNA)
RNA: GGGAGUUCUACAGUCCGACGAUCAACAAAUCUUUCUCUGGAUGAAGAACAGGAAGAUUCAUAUUAAAAAAAAUAUAUAUCCAUCAAGUUAGGUGUGGUGGCCACACCUUUACUCCCAGCACUUUGGGAGGUGGAUCUCUGAGUCAACAGAGGAUUGAGCAUCA
B12: chr8:101932826:101932827:-_ENSG00000164924_ENST00000353245|hu_hu|motif|central (ssRNA)
RNA: GGGAGUUCUACAGUCCGACGAUCAAAUAUAGAAAUUCAAAUAGAAGUAACAUAAACCUGUCAUAAAUCGUAAACAAAAAACGGUUUGUGGGACAGCAUGGAUGACAAAUGGUCUACUGUGUAAAUUUUAGAAUGAGGCAGACACAACAGAGGAUUGAGCAUCA
B13: 39311740_39317387_1035_3pUTR_ENSG00000116954_ENST00000373001|human|control|control (ssRNA)
RNA: GGGAGUUCUACAGUCCGACGAUCACUUCCAUCUUCCUUUAACCCAUAUAUACAAGACACAUCAAUUACAACAUCGAUCAUGUCACAGCAAAGUUCAUAAGAUUGCAUAUCCACAGGGGAACUGUCUGUUGCAAUGUAGAUUUUCAACAGAGGAUUGAGCAUCA
B14: chr16:94664741:94664742:+_ENSMUSG00000040785_ENSMUST00000117648|mus_hu|mus_mus_mus_hu_False|48_48 (ssRNA)
RNA: GGGAGUUCUACAGUCCGACGAUCUGGUACUGAUCUUGGUAGCUGAUAUUCAGGAGAAAGGCUGGCCAAGGGUGUAUAUAUGCUGGUGAACUGCGACAAACCUGGUAACACGUUUAUGUAUGCUGGCGGUGUCUGGGUGAUAUCCAACAGAGGAUUGAGCAUCA
B15: chr11:4127340:4127341:+_ENSG00000167325_ENST00000300738|hu_mus|hu_hu_hu_mus_False|68_98 (ssRNA)
RNA: GGGAGUUCUACAGUCCGACGAUCGGCAUAGUCAGGGUGCUUAGUAGUCAAGGUCGCGGCUGUCUCAGCAGCCAAAGUGUCCAGUUCCACUGUGGUGACCCCACUAUAUAGGCCUUGGAUUACUUUCAUGGUGAUCUGAGCAGGCAACAGAGGAUUGAGCAUCA
B16: 46766122_46771938_5780_CDS_ENSG00000175216_ENST00000415402|human|control|control (ssRNA)
RNA: GGGAGUUCUACAGUCCGACGAUCGAUGCCUGUUGAAGUGGAAAUACGACCUUUGCCCUCCCUCUCCAUCUCAAUCACCCGAAGGCCUCUUUCGACAUAGCUCUGGAAGAACUGUGAGGAAUUUUUCAGAAAUGGUUCAAUGUCCAACAGAGGAUUGAGCAUCA
B17: chr5:139930402:139930403:-_ENSG00000213523_ENST00000336283|hu_hu|motif|central (ssRNA)
RNA: GGGAGUUCUACAGUCCGACGAUCUUCAUUGGCUGCCUCCUCUGAAAACAGACUCCUCUUUUCUGCAAUUAAUCUUUUAACUCCGGCCAUCCACUGACUGACCUCAGUCACAUGGUCAACCAUGAGGGAGCGGUGGAUGUCAUCCAACAGAGGAUUGAGCAUCA
B18: chr16:2011185:2011186:+_ENSG00000140990_ENST00000268668|hu_hu|FALSE|FALSE (ssRNA)
RNA: GGGAGUUCUACAGUCCGACGAUCCACGCGGCGGUACUGCCGGUGGUAGUAGUAAUACCUGUUCUUUGCGUGCUGCCGCUCUAUAAAUUCUCUCACGAGGGUCACGGGUCGGUCCACGAUGAGGUCGAACGCUUUCAUCAUGUACAACAGAGGAUUGAGCAUCA
B19: 119774456_119774576_728_3pUTR_ENSMUSG00000030172_ENSMUST00000032279|mouse|control|control (ssRNA)
RNA: GGGAGUUCUACAGUCCGACGAUCAAGCUUCAUCUUUUCUCAAGGCCCGCUCUUUCUUUAACUCUGGGCUCCAGAAGGUCUUGAUACUAUUCAUUGAUGAACUUAAUUUGCUCUCCUUUACUUCCACAUCUUUCCUCAAAAGAUCAACAGAGGAUUGAGCAUCA
B20: chr1:23884524:23884525:-_ENSG00000117318_ENST00000374561|perfect_dup|motif|central (ssRNA)
RNA: GGGAGUUCUACAGUCCGACGAUCUUUAAUAUACAUCACAUGAUUACAGAAAGUCACCUUCCUGUAAAAAAGGUACAAAAGCGGUAUACUCUAUUAUAGAGUUCAUAAUCAGGGCAGCAGAGCUUUUCUCCAAGGAAACCAGAACAACAGAGGAUUGAGCAUCA
B21: 93417266_93420901_1308_CDS_ENSG00000166004_ENST00000325212|human|control|control (ssRNA)
RNA: GGGAGUUCUACAGUCCGACGAUCUGUCCAGAGAGAUUUUUGGCUUCGGAUCUUAUUUAAUAAUUUUUUAAAAAGAACUUUUGAAGGAAUCUGUUGGGUCUUCAUUACCAAGGGAACAUCUGUUUCACUAGAACAUAUUUCAGCCAACAGAGGAUUGAGCAUCA
B22: 148538928_148539048_455_5pUTR_ENSG00000164168_ENST00000296582|human|control|control (ssRNA)
RNA: GGGAGUUCUACAGUCCGACGAUCGGAGCCCUGUUCUCUGGCUGUUUUGUCAACUCGCAUACUACGGAGAAAAAGCUGUCGGGCGACUUUACGAACAGCUCGAGCCGCCUCCUGGACCGGCGCUGUGUCUUCUGCUGCUGCUGCCAACAGAGGAUUGAGCAUCA

target: T1, UNK ZnF1-3; assay: nsRBNS (natural sequence RNA bind-n-seq); RBNS binding buffer (assumed for nsRBNS): 25 mM Tris pH 7.5, 150 mM KCl, 3 mM MgCl2, 0.01% Triton X-100, 500 ug/ml BSA, 20 U/ml SUPERase-In, 4 C; UNK is unkempt and MSI1 is Musashi-1; names of the RNAs are library labels; protein concentration not given here; high values mean tight binding

Binder | binding signal [enrichment R]
B1 | 0.571
B2 | 1.57
B3 | 1.08
B4 | 1.09
B5 | 1.46
B6 | 0.987
B7 | 0.785
B8 | 0.188
B9 | 0.972
B10 | 1.37
B11 | 1.56
B12 | 1.79
B13 | 1.08
B14 | 1.05
B15 | 0.898
B16 | 0.956
B17 | 0.719
B18 | 0.37
B19 | 0.382
B20 | 0.905
B21 | 2.54
B22 | 0.698
